Source: PubChem BioAssay AID588342 (National Center for Advancing Translational Sciences (NCATS), 2011)
Hit rate of the full screen: of about 360,000 compounds, about 25,000 (6.9%) were called active. Inconclusive means that the source gave no clear call. Such entries were picked first, then a sample of the others. Calls come from the whole dose curve; as a rule, active = well fitted inhibition curve with a large enough effect; inconclusive = small, poorly fitted or top-dose-only effect; inactive = flat fitted curve, though single readings scatter. A potency beside an inconclusive call is a rough fit, not a confirmed value.

Biological target: Luciferin 4-monooxygenase (Photinus pyralis) (UniProt P08659)
Chain of UniProt P08659 (P08659 whole entry, looked up): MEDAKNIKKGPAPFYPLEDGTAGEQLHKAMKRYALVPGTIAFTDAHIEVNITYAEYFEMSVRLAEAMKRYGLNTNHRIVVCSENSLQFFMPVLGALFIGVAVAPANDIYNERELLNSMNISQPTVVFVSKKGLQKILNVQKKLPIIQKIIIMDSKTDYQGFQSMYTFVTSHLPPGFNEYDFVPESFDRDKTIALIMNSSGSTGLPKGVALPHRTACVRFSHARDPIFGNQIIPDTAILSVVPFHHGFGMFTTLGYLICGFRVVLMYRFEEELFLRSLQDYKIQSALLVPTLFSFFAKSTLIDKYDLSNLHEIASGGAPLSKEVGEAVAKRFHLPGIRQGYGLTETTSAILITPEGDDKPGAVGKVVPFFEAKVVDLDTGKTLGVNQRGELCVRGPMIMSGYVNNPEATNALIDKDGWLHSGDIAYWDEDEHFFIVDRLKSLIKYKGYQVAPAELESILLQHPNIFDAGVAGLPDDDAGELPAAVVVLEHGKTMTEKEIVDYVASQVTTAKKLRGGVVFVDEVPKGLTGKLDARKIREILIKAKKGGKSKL
Assay: qHTS profiling assay for firefly luciferase inhibitor/activator using purifed enzyme and Km concentrations of substrates (counterscreen for miR-21 project); note: nearly all actives have a fitted effect of over 55% in size;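 for activity change, negative = inhibition: plate controls were vehicle for no effect and reference inhibitor for full effect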
Conditions: purified FLuc, luminescence inhibition; activity change, negative = inhibition: at 57.5 µM (top of the series)
Procedure, shortened: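 Biochemical qHTS of compounds, final roughly 60 µM downward over six points, against 10 nM purified firefly luciferase using Km concentrations of substrates (10 uM D-luciferin, 10 uM ATP) in Tris acetate pH 7.5 buffer; luminescence output.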
Potency is the fitted concentration of half-maximal effect; tags give direction and shape of the fitted curve.

**Q.** Which “activity change, negative = inhibition” value does the source give for COCCn1c(SCC(=O)NC2CCCC2)nc2c(c1=O)SCC2 here?
**A.** The value was inactive: 5.69%.

**Q.** For Cc1cc(-n2c(C)nc3ccccc3c2=O)ccc1NC(=O)c1cccc([N+](=O)[O-])c1, which “activity change, negative = inhibition” value is on record?
**A.** The value was inactive: -0.189%.

**Q.** Cc1ccc(N=N/C(=C\O)C(=O)c2ccc(Cl)cc2)cc1 was tested. Which Potency did it give?
**A.** The Potency was inconclusive: 23.9 µM [inhibitor, single point].

**Q.** How did the Potency turn out when CCc1ccccc1NC(=O)Cc1c(C(=O)O)[nH]c2ccc(Cl)cc12 was run?
**A.** The Potency was inconclusive: 13.5 µM [inhibitor, partial curve].

**Q.** For Cc1ccc(Cn2c(CNC(=O)c3ccccc3Br)nc3cccnc32)cc1, which “activity change, negative = inhibition” value is on record?
**A.** Its value is inactive: -8.76%.

**Q.** With O=C1CCC(C(=O)Nc2cc(C(F)(F)F)ccc2-n2cncn2)=NN1 as the compound, how does the “activity change, negative = inhibition” value read?
**A.** Its value is inactive: 0.0938%.

**Q.** COc1ccccc1NC(=S)NNC(=O)c1ccc(Cl)cc1Cl was tested. Which Potency did it give?
**A.** Its Potency is active: 10.7 µM.

**Q.** How did the Potency turn out when CNC(=O)COc1ccc(Nc2nnc(-c3ccc(C)c(S(=O)(=O)NC(C)(C)C)c3)c3ccccc23)cc1 was run?
**A.** Its Potency is active: 15.1 µM.

**Q.** For O=C(O)c1ccc(/C=N/Nc2ncc(C(F)(F)F)cc2Cl)cc1, which Potency is on record?
**A.** The Potency was inconclusive: 30.1 µM [inhibitor, partial curve, poor fit].

**Q.** CCCCCC(=O)Nc1cccc(-c2nc3ncccc3o2)c1 was tested. Which Potency did it give?
**A.** Its Potency is inconclusive: 21.3 µM [inhibitor, partial curve, poor fit].

**Q.** With CCc1ccc(NC(=S)N2CCCCCCC2)cc1 as the compound, how does the Potency read?
**A.** The Potency was active: 4.78 µM.

**Q.** Which “activity change, negative = inhibition” value does the source give for C=CCn1c(SCC(=O)Nc2cc(C)on2)nc2sc3c(c2c1=O)CCCC3 here?
**A.** The value was inactive: -0.787%.

**Q.** CC1CN(C(=O)c2ccc(-c3ccccc3Cl)o2)CC(C)O1 (stereo unspecified) was tested. Which Potency did it give?
**A.** The Potency was inconclusive: 23.9 µM [inhibitor, single point].

**Q.** How did the Potency turn out when CCOC(=O)c1ccc(NC(=O)CCC(CC)C(=O)O)cc1 (stereo unspecified) was run?
**A.** Its Potency is inconclusive: 33.8 µM [inhibitor, partial curve, poor fit].

**Q.** How did the “activity change, negative = inhibition” value turn out when Cn1c(=O)c2c(nc(SCC(=O)Nc3ccc(F)cc3)n2Cc2ccccc2)n(C)c1=O was run?
**A.** Its value is inactive: 1.13%.

**Q.** How did the “activity change, negative = inhibition” value turn out when CCC(C(=O)Nc1ccc(C(C)=O)cc1)n1c(C)c2cnn(-c3ccccc3)c(=O)c2c1C (stereo unspecified) was run?
**A.** The value was inactive: -3.4%.

**Q.** For CCOC(=O)c1ccc(Nc2ncnc3nc[nH]c23)cc1, which Potency is on record?
**A.** Its Potency is inconclusive: 3.01 µM [inhibitor, full curve].

**Q.** COc1ccc(NS(=O)(=O)c2cccc(C(=O)Nc3cccc(C(=O)O)c3)c2)cc1 was tested. Which Potency did it give?
**A.** The Potency was inconclusive: 21.3 µM [inhibitor, single point].

**Q.** O=C(Nn1c(C2CCC2)nc2ccccc2c1=O)c1cccs1 was tested. Which “activity change, negative = inhibition” value did it give?
**A.** The value was inactive: -10.7%.

**Q.** Which “activity change, negative = inhibition” value does the source give for CCc1cc2c(N=Nc3c(O)[nH]c4ccccc34)ncnc2s1 here?
**A.** Its value is inactive: -16.2%.

**Q.** Which Potency does the source give for S=c1sc2c(N3CCOCC3)ncnc2n1-c1ccccc1 here?
**A.** The Potency was inconclusive: 21.3 µM [inhibitor, partial curve].

**Q.** For O=C(O)C1C2CCC(O2)C1C(=O)Nc1ccc(O)cc1 (stereo unspecified), which “activity change, negative = inhibition” value is on record?
**A.** The value was inactive: -2.69%.

**Q.** Cc1cc(C(=O)CSc2nnc(Cc3ccccc3)o2)c(C)n1Cc1ccc2c(c1)OCO2 was tested. Which “activity change, negative = inhibition” value did it give?
**A.** Its value is inactive: -22.3%.

**Q.** O=C(CN1C(=O)C(=O)N(C2CCCC2)C1=O)Nc1ccc(N2CCOCC2)cc1 was tested. Which Potency did it give?
**A.** The Potency was inconclusive: 19 µM [inhibitor, partial curve, poor fit].

**Q.** Which “activity change, negative = inhibition” value does the source give for C=CCNC(=O)C(=O)Nc1ccc2c(c1)N(S(=O)(=O)c1cccs1)CCC2 here?
**A.** The value was inactive: 2.69%.

**Q.** For CN(C)/C=C/c1onc(-c2ccccc2Cl)c1C#N, which Potency is on record?
**A.** The Potency was active: 23.9 µM.

**Q.** CC(C)C(=O)OCc1cc(=O)n2nc(C3CCCCC3)sc2n1 was tested. Which Potency did it give?
**A.** The Potency was inconclusive: 23.9 µM [inhibitor, single point].

**Q.** O=C(CSCc1ccccc1Br)N/N=C/c1ccccc1C(=O)O was tested. Which Potency did it give?
**A.** Its Potency is inconclusive: 37.9 µM [inhibitor, single point].

**Q.** For Cc1c(CCC(=O)N2CCC[C@H]2C(=O)O)c(=O)oc2c(C)c3oc4c(c3cc12)CCCC4, which Potency is on record?
**A.** The Potency was inconclusive: 21.3 µM [inhibitor, single point].

**Q.** For COc1ccc(CNC(=O)C2CCN(S(=O)(=O)c3cccc4nonc34)CC2)cc1OC, which “activity change, negative = inhibition” value is on record?
**A.** Its value is inactive: 0.47%.

**Q.** Which Potency does the source give for CCCCN(C)C(=O)c1cc2c(s1)-c1ccccc1S(=O)(=O)C2 here?
**A.** The Potency was inconclusive: 21.3 µM [inhibitor, partial curve, poor fit].

**Q.** For N#Cc1nc(-c2ccccc2)oc1NCc1ccco1, which Potency is on record?
**A.** Its Potency is inconclusive: 23.9 µM [inhibitor, partial curve, poor fit].

**Q.** For COc1cccc(NC(=S)N/N=C2/CCCCc3ccccc32)c1, which Potency is on record?
**A.** The Potency was active: 13.5 µM.

**Q.** Which “activity change, negative = inhibition” value does the source give for CCCC(=O)N1CCN(c2ccc(NC(=O)c3ccc([N+](=O)[O-])o3)cc2)CC1 here?
**A.** The value was inactive: 1.88%.

**Q.** Which “activity change, negative = inhibition” value does the source give for Cc1c(C=C2C(=O)c3ccccc3C2=O)cc(C#N)n1C here?
**A.** The value was inactive: 1.15%.

**Q.** How did the Potency turn out when c1ccc(COc2ccc(OCCN3CCCCC3)cc2)cc1 was run?
**A.** Its Potency is inconclusive: 30.1 µM [inhibitor, single point].

**Q.** CC1=C(C#N)C(=O)N(C2CCS(=O)(=O)C2)C(=O)/C1=C\c1ccco1 (stereo unspecified) was tested. Which Potency did it give?
**A.** The Potency was inconclusive: 21.3 µM [inhibitor, partial curve, poor fit].

**Q.** With O=C(COc1ccc(-c2ccccc2)cc1)N1CCN(S(=O)(=O)Cc2ccccc2)CC1 as the compound, how does the Potency read?
**A.** Its Potency is inconclusive: 12 µM [inhibitor, partial curve, poor fit].

**Q.** Which “activity change, negative = inhibition” value does the source give for O=C(Nc1ccc2c(c1)N(C1CCCC1)C(=O)c1ccccc1S2)c1ccc(F)cc1 here?
**A.** Its value is inactive: -8.36%.

**Q.** How did the Potency turn out when COC(=O)c1c(C)[nH]c(-c2csc(N)n2)c1C was run?
**A.** The Potency was inconclusive: 37.9 µM [inhibitor, partial curve, poor fit].

**Q.** How did the Potency turn out when CN(C)S(=O)(=O)c1cccc(NC(=O)c2cc(-c3cccs3)nc3ccccc23)c1 was run?
**A.** Its Potency is inconclusive: 30.1 µM [inhibitor, partial curve, poor fit].

**Q.** With CCN(CC)CCCNC(=O)c1ccc2nc(CCc3ccccc3)oc2c1 as the compound, how does the “activity change, negative = inhibition” value read?
**A.** The value was inactive: -1.87%.

**Q.** How did the Potency turn out when COc1cc(NS(=O)(=O)c2ccc(NC(=S)NC(=O)c3sc4cc(F)ccc4c3Cl)cc2)nc(OC)n1 was run?
**A.** Its Potency is inconclusive: 21.3 µM [inhibitor, single point].

**Q.** With Cc1ccc(S(=O)(=O)c2c(C)nn(-c3ccccc3)c2OC(=O)c2ccccc2F)cc1 as the compound, how does the Potency read?
**A.** The Potency was inconclusive: 10.7 µM [inhibitor, partial curve].

**Q.** Which Potency does the source give for CC(=O)c1ccc(NC(=O)Nc2cccc3ccccc23)cc1 here?
**A.** Its Potency is inconclusive: 4.78 µM [inhibitor, partial curve, poor fit].

**Q.** For O=C(CSc1ncccn1)N/N=C/c1ccc(OC2CSC2)cc1, which Potency is on record?
**A.** Its Potency is inconclusive: 26.9 µM [inhibitor, partial curve, poor fit].
